According to paper PMC4336329 (PLoS ONE, 2015):
Out of some 310,000 compounds screened, about 2,200 (0.71%) showed an effect of 50% or more. Effects have a minus sign here. This is one part of the list.

Each compound was assayed against human ether-à-go-go-related gene (hERG) potassium channel (human, UniProt Q12809) (assay: primary screen, population patch clamp on CHO cells stably expressing hERG).
Sequence of human ether-à-go-go-related gene (hERG) potassium channel (Q12809 whole entry, looked up): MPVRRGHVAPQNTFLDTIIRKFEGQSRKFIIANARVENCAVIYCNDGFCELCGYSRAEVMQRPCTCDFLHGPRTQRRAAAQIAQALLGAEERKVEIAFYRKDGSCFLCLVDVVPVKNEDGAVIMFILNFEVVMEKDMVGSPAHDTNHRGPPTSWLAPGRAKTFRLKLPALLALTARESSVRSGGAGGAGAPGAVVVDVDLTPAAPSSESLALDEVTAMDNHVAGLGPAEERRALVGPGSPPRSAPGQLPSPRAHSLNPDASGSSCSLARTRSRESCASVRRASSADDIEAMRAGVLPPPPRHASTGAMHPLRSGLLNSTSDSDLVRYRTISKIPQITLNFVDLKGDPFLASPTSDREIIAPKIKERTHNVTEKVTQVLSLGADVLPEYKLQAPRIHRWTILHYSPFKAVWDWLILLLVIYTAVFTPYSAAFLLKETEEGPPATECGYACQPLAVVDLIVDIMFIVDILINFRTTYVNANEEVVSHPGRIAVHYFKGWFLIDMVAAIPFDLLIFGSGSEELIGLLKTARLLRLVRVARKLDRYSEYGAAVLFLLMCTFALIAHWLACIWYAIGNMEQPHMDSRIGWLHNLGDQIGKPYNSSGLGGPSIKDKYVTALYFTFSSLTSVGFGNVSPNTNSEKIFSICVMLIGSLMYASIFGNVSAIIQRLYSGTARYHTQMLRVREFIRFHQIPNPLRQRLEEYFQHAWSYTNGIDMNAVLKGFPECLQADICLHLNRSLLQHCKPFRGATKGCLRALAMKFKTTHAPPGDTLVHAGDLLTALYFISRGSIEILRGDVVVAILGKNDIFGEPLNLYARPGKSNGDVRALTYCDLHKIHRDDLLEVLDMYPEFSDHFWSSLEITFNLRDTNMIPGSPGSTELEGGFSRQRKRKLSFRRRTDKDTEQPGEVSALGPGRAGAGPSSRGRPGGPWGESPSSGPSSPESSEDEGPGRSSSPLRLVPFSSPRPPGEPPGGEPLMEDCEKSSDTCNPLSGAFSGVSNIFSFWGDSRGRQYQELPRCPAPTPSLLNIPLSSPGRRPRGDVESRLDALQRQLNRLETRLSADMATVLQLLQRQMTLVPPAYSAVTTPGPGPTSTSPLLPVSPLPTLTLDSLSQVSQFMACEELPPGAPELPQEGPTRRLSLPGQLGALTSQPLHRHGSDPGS

Structure (SMILES)	hERG current change (%, negative = inhibition) at 1uM
COC(=O)C1=C(c2ccc(OC(F)(F)F)cc2)C[C@@H]2CC[C@H]1N2C(=O)NCCOc1ccccc1	6.83%
CCOC(=O)c1ccc(N=C2C(=S)N(c3ccc(C(=O)OCC)cc3)C(=N)N2/N=C/c2ccccc2)cc1	-12.6%
C/C(CC(=O)Nc1ccc(Cl)c(Cl)c1)=N\NC(=O)C(=O)N1CCCCC1	19.2%
Cc1cccc(NC(=O)Nc2c(C)[nH]c(=O)[nH]c2=O)c1C	15%
CC(NC(=O)CC1Sc2ccccc2NC1=O)c1ccccc1 (stereo not shown)	15%
COc1ccc(C(=O)NC(=S)N2CCC(C)CC2)cc1Br	2.86%
Cc1ccccc1S(=O)(=O)Cc1ccc(C(=O)NCc2ccco2)o1	1.46%
O=C1C2CCCN2C(=S)N1Cc1ccccc1 (stereo not shown)	8.12%
Cn1ncc2c(Nc3ccccc3Br)ncnc21	17.1%
COc1ccc(-c2cc(C3CC3)nc(SCC(=O)c3cccs3)c2C#N)cc1	9.55%
COC(=O)c1ccccc1NC(=O)CSc1nnc(C(CO)NC(=O)c2ccccc2)n1C (stereo not shown)	6.73%
COC(=O)c1sc(NC(=O)/C=C/c2ccc(C)cc2)nc1C	13.4%
CCCCCCCC(=O)N1CCN(c2cc3c(cc2F)c(=O)c(C(=O)O)cn3CC)CC1	5.98%
CN(Cc1ccccc1)C(=O)COC(=O)c1ccc(Cl)cc1N	2.03%
Cc1nc2ccc(Cl)cc2c(=O)n1-c1cccc(Cl)c1	12.2%
O=C(NC(=S)NCc1ccccc1)c1ccc(Br)o1	10.4%
CCCCC(=O)Nc1ccc(NC(=S)NC(=O)CCCCl)cc1OC	7.01%
Cc1nn(Cc2c(F)c(F)c(F)c(F)c2F)c(C)c1NC(=O)c1cccc(COc2ccc(Cl)cc2)c1	13.5%
Cl.N[C@@H](Cc1ccccc1)c1nnc(SC/C=C/c2ccccc2)o1	5.22%
O=C(OCn1nnc2ccccc2c1=O)c1cc(-c2ccccc2)nc2ccccc12	13.7%
CC(C)(C)c1ccc(/C=N/NC(=O)CN2CCS(=O)(=O)CC2)cc1	5.54%
OCCC1CN(Cc2ccc(Oc3ncccn3)cc2)CCN1C1CCCC1 (stereo not shown)	16.2%

Structure (SMILES)	hERG current change (%, negative = inhibition) at 1uM
CC(Sc1ccccc1)C(=O)NN=C1CCCC1 (stereo not shown)	10%
COc1ccc(C2C(Oc3ccccc3C)C(=O)N2Cc2ccc(F)cc2)cc1OC (stereo not shown)	9.12%
Cc1ccc(/C=C(\C#N)C(=O)NCCN2CCOCC2)cc1	12.6%
CC1=NN(C(=O)Cc2ccc(C)cc2)C(O)(c2cccnc2)C1 (stereo not shown)	12.2%
COc1ccc(-c2nnc(NC(=O)Cc3ccccc3)o2)cc1	18.8%
CCC1CCCCN1CCCNC(=O)CS(=O)Cc1nc(-c2ccc(OC)c(OC)c2)oc1C (stereo not shown)	9.24%
CN(C)S(=O)(=O)c1cccc(COC(=O)CCNC(=O)c2ccc([N+](=O)[O-])cc2)c1	1.84%
O=c1cc2c(nn1Cc1ccc(Cl)cc1Cl)-c1ccccc1CC2	12.8%
N#Cc1c(-c2ccc(F)cc2)cc(-c2ccccc2)nc1SCC(=O)NCC(=O)O	-2.31%
COc1ccccc1-c1nn(-c2ccccc2)cc1C(=O)NCC(c1ccco1)N1CCCC1 (stereo not shown)	-2.33%
COC(=O)c1cc(OC)c(OC)cc1N=CC1=C(O)CC(C)(C)CC1=O	12.1%
Cc1cc(NC(=O)C(C)SCC(=O)OCc2ccc(Cl)cc2Cl)no1 (stereo not shown)	9.29%
COc1ccc(/C=N/NC(=O)c2cccc(NC(=O)c3ccccc3Cl)c2)cc1	4.12%
N#C/C(=C\c1ccc(-c2nc3ccccc3s2)o1)C(N)=O	13.7%
COc1cccc(CN(C)C(=O)CCN=C2NS(=O)(=O)c3ccccc32)c1OC	14.8%
CC(=O)N1c2ccc(S(=O)(=O)N3CCC(C(=O)Nc4cccc(C)n4)CC3)cc2CC1C (stereo not shown)	14.4%
CC12C(=O)N(n3cnnc3)C(=O)C1C1C=CC2C1 (stereo not shown)	2.37%
Cc1cccc(N2CCN(C(=O)C3CC(=O)N(c4ccc5c(c4)OCCO5)C3)CC2C)c1 (stereo not shown)	4.65%
Cl.NC(CO)C12CC3CC(CC(C3)C1)C2 (stereo not shown)	14.7%
O=C(O)c1ccc(CN2C(=O)CSC2=S)cc1	-1.81%
O=C1N(Cc2ccccc2)CCCC12CCCN(Cc1ccccc1)C2=O	5.61%
